Results taken from the BET-seq Pho4 binding data (Le et al. 2018).
This is one part of the list. Values were computed here from the reads of four pooled replicates and scatter widely.

These sequences were tested against T1, Pho4 (S. cerevisiae) (UniProt P07270) (assay: relative binding free energy (BET-seq); higher = weaker binding). Conditions: reference: library average.
T1 sequence: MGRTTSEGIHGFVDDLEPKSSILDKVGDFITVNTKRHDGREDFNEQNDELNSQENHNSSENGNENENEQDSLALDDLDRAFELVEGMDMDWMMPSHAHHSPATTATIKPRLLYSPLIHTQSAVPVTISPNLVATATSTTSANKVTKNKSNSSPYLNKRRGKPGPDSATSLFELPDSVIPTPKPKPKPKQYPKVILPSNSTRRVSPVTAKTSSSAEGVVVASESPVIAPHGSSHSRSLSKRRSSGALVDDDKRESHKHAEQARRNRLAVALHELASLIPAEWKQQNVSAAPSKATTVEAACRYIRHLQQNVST

Relative binding free energy, 0.3 kcal/mol:
GTTATCACGTGTAATA, GGATTCACGTGGGACT

Relative binding free energy, -0.02 kcal/mol:
TCTAGCACGTGGAGTT, TGTGGCACGTGGAGCT

Relative binding free energy, -0.04 kcal/mol:
ATAGTCACGTGGGTAG, GTTGCCACGTGTTTTA, AGGGCCACGTGTGGAG, TGATACACGTGGGGGA, TGCGTCACGTGGGCAT, AGCGACACGTGGGTCT

Relative binding free energy, 0.11 kcal/mol:
AGTTACACGTGTGTGG, GGGGTCACGTGGCTAT, AAGTACACGTGGTTCT, GTCGACACGTGGTTGG, TTAGTCACGTGCTTGA

Relative binding free energy, 0.26 kcal/mol:
TGGTTCACGTGGCTCG, TGGTTCACGTGTGGGT, AGGTTCACGTGCTAGT

Relative binding free energy, 0.01 kcal/mol:
ATAAACACGTGTGGGC, TAAGACACGTGGTGCT

Relative binding free energy, -0.2 kcal/mol:
GCGGGCACGTGGGATA, GGTCGCACGTGGGCTT

Relative binding free energy, -0.25 kcal/mol:
TTGGGCACGTGCGTCA

Relative binding free energy, -0.34 kcal/mol:
CTAGGCACGTGGGGTA

Relative binding free energy, 0.08 kcal/mol:
GTTTGCACGTGGATCT, GCTGTCACGTGTTTTT, GCGGACACGTGTGGGT

Relative binding free energy, 0.49 kcal/mol:
GGATTCACGTGAGTAA

Relative binding free energy, 0.33 kcal/mol:
TGGGTCACGTGAGTTC, TTGTGCACGTGAATTT

Relative binding free energy, 0.13 kcal/mol:
ACTTACACGTGGTTAT, ATAATCACGTGGTGGT

Relative binding free energy, 0.02 kcal/mol:
TGGGTCACGTGCGTTG, GTTGTCACGTGGGATC, TGAGGCACGTGAATCG

Relative binding free energy, 0.41 kcal/mol:
AAATTCACGTGTCATT, TGATTCACGTGAGGGG, AATTTCACGTGAGGTA

Relative binding free energy, -0.14 kcal/mol:
GCGAGCACGTGTGAGG, ATGTGCACGTGCCGGT, GCGGGCACGTGGGAGA, TAAAGCACGTGGATTT

Relative binding free energy, -0.01 kcal/mol:
TTTATCACGTGGCTAG, ATGTGCACGTGTTGGA, ATCATCACGTGGGGGC, AGGTCCACGTGTGTGG, ATTGGCACGTGGAAGC

Relative binding free energy, 0.37 kcal/mol:
TTATTCACGTGTCAGG, CTTTGCACGTGAATTT

Relative binding free energy, 0.12 kcal/mol:
GAAGTCACGTGGTTGC, CTGGTCACGTGTAGTC, TCGTACACGTGATGGT, AATATCACGTGTGAAT, TAAAACACGTGTTGGT

Relative binding free energy, 0.18 kcal/mol:
TTTATCACGTGTGGGT, TTTAACACGTGAGATG, TCGGACACGTGAGTGG

Relative binding free energy, 0.1 kcal/mol:
TTGTTCACGTGCATGT, GTTTGCACGTGCATGG, AACGGCACGTGAGGTT, GCGGTCACGTGTTAAG

Relative binding free energy, 0.43 kcal/mol:
ATGTTCACGTGGAGAC, AGTCACACGTGAGTAG, ACGTTCACGTGATTGG

Relative binding free energy, -0.24 kcal/mol:
TTACGCACGTGGGCTT, TGTCGCACGTGGGGTA, TTCGGCACGTGGGCTG

Relative binding free energy, 0.15 kcal/mol:
TCTATCACGTGTGTGT, AGGATCACGTGCGGAG, CGAGGCACGTGAGTGG, TCCTTCACGTGGGTGT, TGGTGCACGTGAACTT

Relative binding free energy, 0.07 kcal/mol:
TTGGTCACGTGCTATT, GTAGGCACGTGTAATT, ATTGTCACGTGACTTT, ACGGTCACGTGTGGTG, ATGGGCACGTGTACTT, CATTGCACGTGTTTTT

Relative binding free energy, -0.09 kcal/mol:
TTGGGCACGTGTACGT, TGCGGCACGTGGGAGA, GATGACACGTGCGTGT, ACATGCACGTGGAGGG, ATAAGCACGTGGCTTT, ATGGCCACGTGTATTT, AGGGGCACGTGTAGTG

Relative binding free energy, -0.23 kcal/mol:
GGAGGCACGTGGGCAG, GTAGCCACGTGGTAGG

Relative binding free energy, -0.11 kcal/mol:
GTGGGCACGTGCTTGT, GTGGGCACGTGAGACG, TACAACACGTGGGTTT, CTTAGCACGTGCGGTT

Relative binding free energy, -0.22 kcal/mol:
GATCGCACGTGGTGTT, GTCGGCACGTGGTGTA, ACAGGCACGTGGTATG, TTAGGCACGTGTTTAC, CGGGCCACGTGGGTTG

Relative binding free energy, 0.22 kcal/mol:
TGGTTCACGTGTACAT, ATTGACACGTGATGTG, CTGTTCACGTGTGCGT, GACTTCACGTGGGGGA

Relative binding free energy, 0.16 kcal/mol:
GACGTCACGTGTTGAT, GATGTCACGTGTCTGG

Relative binding free energy, -0.12 kcal/mol:
ATTAACACGTGGTGAA, TTTGGCACGTGGTGGG, TATCGCACGTGTCGGT

Relative binding free energy, 0.04 kcal/mol:
ACAGTCACGTGGTTAA

Relative binding free energy, 0.29 kcal/mol:
GGTATCACGTGTTGAA

Relative binding free energy, -0.1 kcal/mol:
TGTAGCACGTGGATGG, GGTGCCACGTGGCAGG, TGTAGCACGTGCGGGA, TTATACACGTGGGCGT, GTGGACACGTGTGTGC, CTCGTCACGTGGGGGT

Relative binding free energy, 0.27 kcal/mol:
GAGTTCACGTGGGGCG, GTAGTCACGTGGAAGA

Relative binding free energy, 0.06 kcal/mol:
GTAAACACGTGTCGGT, ATTATCACGTGGCTAT, ATCTACACGTGTTTGT

Relative binding free energy, 0.25 kcal/mol:
TCCAGCACGTGTGGGA, GATGTCACGTGGACGG

Relative binding free energy, -0.27 kcal/mol:
TAGGCCACGTGGGTTA

Relative binding free energy, 0.03 kcal/mol:
TTTGTCACGTGCAGGC, TTGGTCACGTGGGGAA, AGAATCACGTGGGTAA, ACCGTCACGTGGTGGT, GTTGACACGTGTGCTG

Relative binding free energy, 0.28 kcal/mol:
AAATTCACGTGAGGAT, GTCTTCACGTGGTTCT, GGGGTCACGTGTGAAG

Relative binding free energy, 0.14 kcal/mol:
GGTGTCACGTGTGGTT, ATGGTCACGTGCGGTT, AATTTCACGTGGGCAT

Relative binding free energy, 0.19 kcal/mol:
AAATACACGTGATGTT

Relative binding free energy, -0.15 kcal/mol:
TGCGGCACGTGTGGCA, TGGGGCACGTGGTTAA, AGTGCCACGTGGAGCG

Relative binding free energy, 0.21 kcal/mol:
GGGGACACGTGAGCTG, ATTTTCACGTGTTTGT, CTTGTCACGTGATCGG, ATATTCACGTGGAGGT, GAATACACGTGTGGTA

Relative binding free energy, 0.2 kcal/mol:
GGTCTCACGTGGTAAG, CAATTCACGTGTGTAG, GAAGCCACGTGAGGTG, CGGTTCACGTGGAGGG, GGTGTCACGTGTTTCA, TTGAGCACGTGAGTTT, TTGTCCACGTGCTTGG, AATTGCACGTGTCGGA, GTTTGCACGTGAGAGA

Relative binding free energy, -0.16 kcal/mol:
TGATGCACGTGGTCGT, CGTTGCACGTGGTCAG, TGCAGCACGTGGAGTA, TGCGACACGTGGGTGA

Relative binding free energy, 0.39 kcal/mol:
GGGGTCACGTGTAATT, GTTTTCACGTGTCGGT

Relative binding free energy, -0.05 kcal/mol:
AGTGGCACGTGTTTAT, ATTGTCACGTGTTATA, GGATCCACGTGGGTGA, ATGGGCACGTGGACCG, CCGGTCACGTGGGAGT, GTGTGCACGTGGTTCG

Relative binding free energy, 0.34 kcal/mol:
TGATTCACGTGGATTC, GACTTCACGTGCGTGT, TGCTTCACGTGATTGG, GGGTTCACGTGGTTCG

Relative binding free energy, -0.21 kcal/mol:
GGGTGCACGTGCGCTG, GGAGGCACGTGGGCAT

Relative binding free energy, 0.05 kcal/mol:
TATGTCACGTGCTGTA, GGCAACACGTGTTTGT, GTTGTCACGTGTCGAG, TTCCTCACGTGGGTGG, TGCTTCACGTGGGATA, TGTGGCACGTGACTTT, CAGTTCACGTGTTGTA, GAAGTCACGTGGGCGG, TACGGCACGTGTGATG, GTACACACGTGGGGAA

Relative binding free energy, 0.38 kcal/mol:
TTAATCACGTGATGTC, GGGTTCACGTGCTTAT

Relative binding free energy, -0.28 kcal/mol:
AGCGGCACGTGGGGCA

Relative binding free energy, -0.13 kcal/mol:
TAACGCACGTGGTGGT, CGGAGCACGTGCTGTG, CATGCCACGTGGTGGG, ACTCGCACGTGGGGTT

Relative binding free energy, 0.09 kcal/mol:
TTTTCCACGTGGTAGC, AGGTACACGTGGATCG, AAAGTCACGTGGTTGC, GTTTGCACGTGTCTCG, TTTTCCACGTGTGTAG

Relative binding free energy, -0.03 kcal/mol:
TTAGTCACGTGGACTT, TGCGACACGTGGAGTG, TTCGGCACGTGTTAGG, GCGTGCACGTGGAGTA, TGCTGCACGTGGTGAA, CGAGTCACGTGGTGGG

Relative binding free energy, -0.08 kcal/mol:
AGTTGCACGTGGTTGA, TGGAACACGTGCGTGT, TAGTGCACGTGATCTG, GTTAGCACGTGGTTCG

Relative binding free energy, -0.07 kcal/mol:
TTAAGCACGTGGTTGG, CGTTGCACGTGTTGTA, TGCACCACGTGTGGGT, TTTAGCACGTGGCGGC, CATGCCACGTGTGTTG, GTAGGCACGTGTTGGA

Relative binding free energy, 0.45 kcal/mol:
GAGGTCACGTGAGGCT, TATCTCACGTGCAGTT

Relative binding free energy, -0.06 kcal/mol:
AGGCGCACGTGTGTTG, GGTAACACGTGGCTTG, TGGTCCACGTGTGTCG, TCTGACACGTGGTATG, TGTTGCACGTGGCCTT

Relative binding free energy, 0 kcal/mol:
GACGGCACGTGACGGG, AGATACACGTGGTGGA, GTAGGCACGTGTGGAA

Relative binding free energy, 0.32 kcal/mol:
TTGTTCACGTGTACGA, AGGTTCACGTGATATT, GTGCTCACGTGAGTTG

Relative binding free energy, 0.24 kcal/mol:
TATAGCACGTGAAGGG, TTATTCACGTGTATTT

Relative binding free energy, -0.19 kcal/mol:
TTCGGCACGTGGGAGG, TTGAGCACGTGGTACT

Relative binding free energy, -0.18 kcal/mol:
TAGGGCACGTGGTTCG

Relative binding free energy, 0.23 kcal/mol:
GTTTTCACGTGTCGAT, GTTGTCACGTGGAAGT, ATTGACACGTGACGTT, TTTATCACGTGTCTTT, GTCGTCACGTGAAGTG

Relative binding free energy, 0.31 kcal/mol:
TTCTACACGTGGATAG
